Experimental data published in the supplement of paper PMC3334620.
In all, about 33,000 sequences were measured (“E-score (-0.5 to 0.5)”: median about -0.017, highest 2% from about 0.3 on). Some of the results follow.

Target: T1, Sut1 (UniProt P53032)
T1 sequence: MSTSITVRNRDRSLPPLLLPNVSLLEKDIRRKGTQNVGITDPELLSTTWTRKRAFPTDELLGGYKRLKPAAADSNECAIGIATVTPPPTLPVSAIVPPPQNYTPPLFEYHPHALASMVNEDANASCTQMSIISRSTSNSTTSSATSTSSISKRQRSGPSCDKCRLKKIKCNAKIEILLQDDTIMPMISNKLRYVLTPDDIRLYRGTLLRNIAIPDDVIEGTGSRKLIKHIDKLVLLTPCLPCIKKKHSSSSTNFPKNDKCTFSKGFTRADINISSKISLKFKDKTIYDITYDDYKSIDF
Assay: PBM E-score (8-mer binding enrichment) (E-score (-0.5 to 0.5)); higher = stronger / more preferred TF binding; most listed sequences are background and not binding sites
Details: protein concentration: 200 nM; construct: GST-full length
Method in brief: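 Yeast transcription factors, full-length or as DNA-binding domains, were expressed with a GST tag using PURExpress in vitro transcription/translation. At about 100-200 nM they were applied to universal all-10-mer Agilent arrays, double-stranded by primer extension on fresh or once-stripped slides. Fluorescent anti-GST detected bound protein, and masliner normalised the scans. E-scores for ungapped eight-base words, pooled with reverse complements, came from the Universal PBM Analysis Suite.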

Question: For AACCTCTT, which “PBM E-score” value is on record?
Answer: 0.18

Question: Which “PBM E-score” value does the source give for ATATCGTC here?
Answer: -0.0971

Question: GCAAATCA was tested. Which “PBM E-score” value did it give?
Answer: 0.0186

Question: ACGCTGCA was tested. Which “PBM E-score” value did it give?
Answer: -0.198

Question: CCGAGAAC was tested. Which “PBM E-score” value did it give?
Answer: 0.274

Question: How did the “PBM E-score” value turn out when CAACCGTA was run?
Answer: -0.287

Question: For AAATAGCG, which “PBM E-score” value is on record?
Answer: 0.0887

Question: For GGATCGAA, which “PBM E-score” value is on record?
Answer: -0.0726

Question: Which “PBM E-score” value does the source give for CGCTATCA here?
Answer: -0.144

Question: How did the “PBM E-score” value turn out when GACGCACC was run?
Answer: -0.235

Question: How did the “PBM E-score” value turn out when CAAAACTA was run?
Answer: 0.268

Question: AATCCTCA was tested. Which “PBM E-score” value did it give?
Answer: 0.00363

Question: For AAGCTGCC, which “PBM E-score” value is on record?
Answer: -0.276

Question: With ACCTTGTA as the sequence, how does the “PBM E-score” value read?
Answer: 0.00241

Question: For GTCGGTGA, which “PBM E-score” value is on record?
Answer: -0.202

Question: With GATCCCTA as the sequence, how does the “PBM E-score” value read?
Answer: -0.0568

Question: With CACGAAAA as the sequence, how does the “PBM E-score” value read?
Answer: 0.117

Question: ACACCTTG was tested. Which “PBM E-score” value did it give?
Answer: -0.0462

Question: Which “PBM E-score” value does the source give for AACTCCCA here?
Answer: -0.0126

Question: With AGGCCTAA as the sequence, how does the “PBM E-score” value read?
Answer: -0.0602

Question: How did the “PBM E-score” value turn out when ATAATATG was run?
Answer: 0.286

Question: CCGTTTTC was tested. Which “PBM E-score” value did it give?
Answer: 0.0524

Question: How did the “PBM E-score” value turn out when CCCCTGTC was run?
Answer: -0.371

Question: With CAATGTAC as the sequence, how does the “PBM E-score” value read?
Answer: -0.162

Question: How did the “PBM E-score” value turn out when GGATCAAC was run?
Answer: 0.0423

Question: With GATGACTA as the sequence, how does the “PBM E-score” value read?
Answer: -0.0602

Question: How did the “PBM E-score” value turn out when ATACTAGC was run?
Answer: 0.021

Question: With AGCGGACT as the sequence, how does the “PBM E-score” value read?
Answer: 0.406

Question: How did the “PBM E-score” value turn out when AACGTTAA was run?
Answer: 0.158

Question: With ATTAGGAA as the sequence, how does the “PBM E-score” value read?
Answer: 0.0997

Question: How did the “PBM E-score” value turn out when GATTTCCC was run?
Answer: 0.0847

Question: Which “PBM E-score” value does the source give for CGGCTAAC here?
Answer: 0.156

Question: How did the “PBM E-score” value turn out when ATTTACAC was run?
Answer: 0.0273

Question: With CCCCATTA as the sequence, how does the “PBM E-score” value read?
Answer: -0.19

Question: How did the “PBM E-score” value turn out when GAATGTAC was run?
Answer: 0.145

Question: How did the “PBM E-score” value turn out when CCGGCCAG was run?
Answer: 0.00718

Question: How did the “PBM E-score” value turn out when ATCCGGAC was run?
Answer: 0.362

Question: For GATAGAAC, which “PBM E-score” value is on record?
Answer: 0.06

Question: How did the “PBM E-score” value turn out when ATTGCTGA was run?
Answer: -0.0342

Question: For AGATCTTC, which “PBM E-score” value is on record?
Answer: 0.0408

Question: Which “PBM E-score” value does the source give for ATTGGTTG here?
Answer: -0.0326

Question: Which “PBM E-score” value does the source give for AAGAACGC here?
Answer: 0.024

Question: CTCGAGCC was tested. Which “PBM E-score” value did it give?
Answer: -0.283

Question: Which “PBM E-score” value does the source give for CCCGGGGA here?
Answer: -0.00446

Question: For ATAAAAAT, which “PBM E-score” value is on record?
Answer: 0.252

Question: How did the “PBM E-score” value turn out when CTGTAATA was run?
Answer: 0.218

Question: Which “PBM E-score” value does the source give for AATATCAA here?
Answer: 0.163

Question: With ACAGGTCC as the sequence, how does the “PBM E-score” value read?
Answer: 0.0916

Question: With AGCTTGGA as the sequence, how does the “PBM E-score” value read?
Answer: -0.0995

Question: For TAACACAA, which “PBM E-score” value is on record?
Answer: 0.186

Question: Which “PBM E-score” value does the source give for AGACAAGA here?
Answer: 0.0406

Question: AACGTCCT was tested. Which “PBM E-score” value did it give?
Answer: -0.0852

Question: AATTGCGA was tested. Which “PBM E-score” value did it give?
Answer: 0.0183

Question: With CGGTAGAC as the sequence, how does the “PBM E-score” value read?
Answer: 0.101

Question: How did the “PBM E-score” value turn out when GTACTCTA was run?
Answer: 0.00045

Question: With GCTGCCGA as the sequence, how does the “PBM E-score” value read?
Answer: -0.0579

Question: With CCGCCTAA as the sequence, how does the “PBM E-score” value read?
Answer: -0.17

Question: With GAACACTC as the sequence, how does the “PBM E-score” value read?
Answer: 0.0251

Question: For CTTTCGCC, which “PBM E-score” value is on record?
Answer: -0.0713

Question: For AGTAGGTA, which “PBM E-score” value is on record?
Answer: 0.0123

Question: How did the “PBM E-score” value turn out when ACAACGCT was run?
Answer: -0.159

Question: With GAAAGTTC as the sequence, how does the “PBM E-score” value read?
Answer: 0.0193

Question: GAAGATTC was tested. Which “PBM E-score” value did it give?
Answer: 0.171

Question: How did the “PBM E-score” value turn out when AAGAGTTC was run?
Answer: -0.0235

Question: GATCGAAA was tested. Which “PBM E-score” value did it give?
Answer: 0.0489

Question: TCCTTCGA was tested. Which “PBM E-score” value did it give?
Answer: 0.11

Question: For ATAAGGTA, which “PBM E-score” value is on record?
Answer: 0.106

Question: Which “PBM E-score” value does the source give for GTAAAGCA here?
Answer: 0.125

Question: With ATAAATAC as the sequence, how does the “PBM E-score” value read?
Answer: 0.275

Question: For CCGGGCCA, which “PBM E-score” value is on record?
Answer: -0.0793

Question: Which “PBM E-score” value does the source give for CTACTAAA here?
Answer: 0.123

Question: With CTTGGTTA as the sequence, how does the “PBM E-score” value read?
Answer: 0.0382

Question: With CTGAGTGC as the sequence, how does the “PBM E-score” value read?
Answer: -0.199

Question: How did the “PBM E-score” value turn out when GACCCGTA was run?
Answer: -0.192

Question: How did the “PBM E-score” value turn out when CGAAACGA was run?
Answer: 0.161

Question: How did the “PBM E-score” value turn out when AAGTTTTG was run?
Answer: -0.00678

Question: Which “PBM E-score” value does the source give for GCGGGCGA here?
Answer: 0.00688

Question: ATAGATGC was tested. Which “PBM E-score” value did it give?
Answer: 0.007

Question: AGATCTAC was tested. Which “PBM E-score” value did it give?
Answer: -0.0245

Question: With CAGTCGGA as the sequence, how does the “PBM E-score” value read?
Answer: 0.204

Question: For ACCTTATG, which “PBM E-score” value is on record?
Answer: 0.0125

Question: How did the “PBM E-score” value turn out when TATGATGA was run?
Answer: 0.189

Question: With GTCAATAA as the sequence, how does the “PBM E-score” value read?
Answer: 0.128

Question: Which “PBM E-score” value does the source give for CGCTACAA here?
Answer: 0.077

Question: Which “PBM E-score” value does the source give for CGGAGATC here?
Answer: 0.445

Question: CAACTCTA was tested. Which “PBM E-score” value did it give?
Answer: 0.0751

Question: For CGGACGGC, which “PBM E-score” value is on record?
Answer: -0.0292

Question: Which “PBM E-score” value does the source give for ATGTGGCA here?
Answer: -0.197

Question: For AGTTCGCC, which “PBM E-score” value is on record?
Answer: 0.0621

Question: AATGCTAG was tested. Which “PBM E-score” value did it give?
Answer: -0.155

Question: For AAGCGATA, which “PBM E-score” value is on record?
Answer: -0.147

Question: For AAGTAATG, which “PBM E-score” value is on record?
Answer: 0.116

Question: With CGATTGCG as the sequence, how does the “PBM E-score” value read?
Answer: 0.0591

Question: Which “PBM E-score” value does the source give for CCTTTACC here?
Answer: -0.153
